# In the supplement of paper PMC9446081:
# Screen size: about 39,000 compounds; about 220 (0.56%) showed activity. The list shows a part of the results.
# System: Escherichia coli K-12 BW25113
# Assay: relative growth (OD600 normalised to plate interquartile mean) (fraction); higher = less growth inhibition, active = 0.2 or less
# Settings: 50 µM; LB; incubation time: overnight (16-24 h)
# 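Further: static incubation at 37 °C against the wild-type strain, values averaged over two biological replicates.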
row,SMILES,relative growth
1,C[C@H]1CN([C@@H](C)CO)C(=O)c2c(c3ccccc3n2C)-c2ccccc2CO[C@H]1CN(C)C(=O)Nc1ccc(F)cc1,inactive: 1.02
2,C[C@@H]1CN([C@@H](C)CO)C(=O)c2cc(NC(=O)NC3CCCCC3)ccc2O[C@H]1CN(C)C(=O)Nc1cccc2ccccc12,inactive: 1.03
3,CN(Cc1ccccc1)C(=O)[C@H](Cc1ccc2ccccc2c1)NC(=O)[C@@H]1CCCN1C(=O)Nc1ccccc1[N+](=O)[O-],inactive: 1.04
4,CC(C)NC(=O)N[C@H]1C=C[C@H](CC(=O)NCCN2CCCC2)O[C@@H]1CO,inactive: 1.01
5,Cc1noc(C)c1S(=O)(=O)Nc1ccc2c(c1)CC(=O)N([C@@H](C)CO)C[C@H](C)[C@@H](CN(C)S(=O)(=O)c1cccs1)O2,inactive: 0.981
6,Cc1cc(C(=O)Nc2cccc3c2O[C@H](CN(C)Cc2ccncc2)[C@@H](C)CN([C@@H](C)CO)C3=O)n(C)n1,inactive: 1.01
7,N#CC1(N[C@@H](Cc2ccccc2)c2ccccc2)CCCCCC1,inactive: 1.02
8,COc1ccc(CN(C)C[C@@H]2OCCCC[C@@H](C)Oc3ccc(NS(=O)(=O)c4cccs4)cc3C(=O)N([C@H](C)CO)C[C@H]2C)cc1,inactive: 0.997
9,C[C@@H]1CN([C@@H](C)CO)C(=O)Cc2cc(NC(=O)CCCN(C)C)ccc2O[C@H]1CN(C)C(=O)Nc1ccc(F)cc1,inactive: 1.04
10,Cc1ccc(S(=O)(=O)N[C@@H]2CC[C@H](CC(=O)NCc3ccc(Cl)c(Cl)c3)O[C@@H]2CO)cc1,inactive: 1.02
11,O=c1c(O)c(-c2ccc(O)cc2O)oc2cc(O)cc(O)c12,inactive: 1.12
12,CC(=O)N[C@H]1CC[C@H](CCNC(=O)C2CC2)O[C@H]1CO,inactive: 0.987
13,C[C@H](CO)N1C[C@H](C)[C@H](CN(C)S(C)(=O)=O)Oc2ccc(NC(=O)Cc3cn(C)c4ccccc34)cc2CC1=O,inactive: 1.03
14,CCOC(=O)CC(=O)c1ccn(C)n1,inactive: 0.998
15,COc1ccc(C2CNC(=O)C2)cc1OC1CCCC1 (stereo not given),inactive: 1.06
16,O=C(Nc1ccc(F)cc1)N[C@@H]1C[C@@H]2O[C@@H](CO)CC[C@@H]2O[C@@H]1CCc1ccc(-c2ccccc2)cc1,inactive: 1
17,C[C@H](CO)N1C[C@H](C)[C@H](CN(C)C(=O)c2ccccc2)OCCCC[C@H](C)Oc2ccc(NS(=O)(=O)c3ccccc3)cc2C1=O,inactive: 0.979
18,C[C@H](CO)N1C[C@H](C)[C@@H](CN(C)Cc2ccc(-c3ccccc3)cc2)Oc2ccc(NC(=O)Cc3cn(C)c4ccccc34)cc2C1=O,inactive: 0.981
19,COC(=O)[C@@H](Cc1ccc(-n2cc(COc3ccccc3/C=C(C)/C=C/C(=O)NO)nn2)cc1)N1CC(/C=C/C2CC2)=C[C@H]1[C@H](O)Cc1ccccc1,inactive: 1.01
20,COc1ccccc1S(=O)(=O)N1C[C@@H](O)COC[C@H]2O[C@H](CC(=O)O)CC[C@@H]21,inactive: 1.01
21,C[C@@H]1CN([C@H](C)CO)C(=O)Cc2cc(NC(=O)CCCCCC(=O)Nc3ccccc3N)ccc2O[C@H]1CN(C)C(=O)Nc1cccc2ccccc12,inactive: 0.963
22,CS(=O)(=O)SCCN,inactive: 0.952

row,SMILES,relative growth
1,C[C@H](CO)N1C[C@H](C)[C@H](CN(C)C(=O)Nc2ccc3c(c2)OCO3)OCCCC[C@H](C)Oc2ccc(NC(=O)CCC(F)(F)F)cc2C1=O,inactive: 1.02
2,C[C@H]1CN([C@@H](C)CO)C(=O)c2cc(NC(=O)c3ccncc3)ccc2O[C@H]1CN(C)S(=O)(=O)c1cccs1,inactive: 1.02
3,C[C@H](CO)N1C[C@H](C)[C@H](CN(C)Cc2ccc(C(=O)Nc3ccccc3N)cc2)Oc2ccc(NC(=O)Nc3ccccc3)cc2CC1=O,inactive: 1.02
4,CCC(=O)N(C)C[C@@H]1Oc2ncc(C#C[C@H](C)O)cc2C(=O)N([C@@H](C)CO)C[C@@H]1C,inactive: 1
5,CCCNC(=O)N1C[C@H]2[C@@H](c3ccccc31)[C@H](CO)N2C(=O)CN1CCOCC1,inactive: 1.03
6,CCCN(C)C[C@H]1OCCCC[C@H](C)Oc2ccc(NC(=O)CCC(F)(F)F)cc2C(=O)N([C@H](C)CO)C[C@H]1C,inactive: 0.957
7,C[C@@H]1CCCCO[C@@H](CN(C)C(=O)Nc2cccc3ccccc23)[C@@H](C)CN([C@H](C)CO)C(=O)c2cc(NS(=O)(=O)c3cn(C)cn3)ccc2O1,inactive: 0.99
8,C[C@@H]1CN([C@@H](C)CO)C(=O)c2cc(NS(=O)(=O)c3ccc(Cl)cc3)ccc2O[C@@H](C)CCCCO[C@@H]1CN(C)Cc1ccc2c(c1)OCO2,inactive: 0.946
9,C[C@H]1CN([C@@H](C)CO)C(=O)c2cc(NC(=O)Nc3ccc(C(F)(F)F)cc3)ccc2O[C@H]1CN(C)Cc1ccc(Oc2ccccc2)cc1,inactive: 0.989
10,C[C@@H]1CN([C@@H](C)CO)C(=O)c2cc(NC(=O)CCN3CCOCC3)ccc2O[C@@H]1CN(C)Cc1ccc2c(c1)OCO2,inactive: 1.02
11,Cc1ccc(S(=O)(=O)N(C)C[C@@H]2OCCCC[C@@H](C)Oc3ccc(NC(=O)CCCCCC(=O)Nc4ccccc4N)cc3C(=O)N([C@H](C)CO)C[C@@H]2C)cc1,inactive: 0.978
12,COCC#Cc1ccc2c(c1)O[C@H](CN(C)C(=O)Nc1ccccc1F)[C@@H](C)CN([C@@H](C)CO)S2(=O)=O,inactive: 1.01
13,CN(C)CCCN1c2ccccc2Sc2ccc(C(F)(F)F)cc21.Cl,inactive: 0.71
14,C[C@@H]1CNC(=O)CO1,inactive: 0.968
15,Cc1ccc(S(=O)(=O)N(C)C[C@H]2Oc3ccc(NS(=O)(=O)c4ccccc4)cc3CC(=O)N([C@@H](C)CO)C[C@@H]2C)cc1,inactive: 0.989
16,COc1nsnc1N1CCOCC1,inactive: 0.976
17,CCNC(=O)C[C@@H]1CC[C@H]2[C@H](COc3ccc(NS(=O)(=O)c4ccccc4C)cc3C(=O)N2C)O1,inactive: 0.981
18,Cc1ccc(S(=O)(=O)Nc2ccc3c(c2)C(=O)N([C@H](C)CO)C[C@H](C)[C@@H](CN(C)S(C)(=O)=O)O3)cc1,inactive: 1.01
19,C[C@H](CO)N1C[C@H](C)[C@H](CN(C)S(C)(=O)=O)OCCCC[C@H](C)Oc2ccc(NS(C)(=O)=O)cc2C1=O,inactive: 0.959
20,CC(C)NC(=O)Nc1ccc2c(c1)C(=O)N([C@H](C)CO)C[C@H](C)[C@H](CN(C)S(C)(=O)=O)OCCCC[C@H](C)O2,inactive: 0.981
21,C[C@H](CO)N1C[C@H](C)[C@H](CN(C)S(=O)(=O)c2ccc(F)cc2)Oc2ccc(NC(=O)c3ccncc3)cc2CC1=O,inactive: 0.973
22,C[C@@H]1CN([C@@H](C)CO)C(=O)Cc2cc(NC(=O)Nc3ccc(C(F)(F)F)cc3)ccc2O[C@@H]1CN(C)Cc1ccc(C(=O)Nc2ccccc2N)cc1,inactive: 1

row,SMILES,relative growth
1,COc1ccc(NC(=O)N(C)C[C@@H]2OCCCC[C@H](C)Oc3ccc(NC(=O)c4ccncc4)cc3C(=O)N([C@H](C)CO)C[C@H]2C)cc1,inactive: 0.987
2,COc1ccc(C#Cc2cnc3c(c2)C(=O)N([C@H](C)CO)C[C@H](C)[C@H](CN(C)S(=O)(=O)c2ccc(C#N)cc2)O3)cc1OC,inactive: 1.04
3,Cl.Clc1cccc(Cl)c1N=C1NCCN1,inactive: 1.21
4,Clc1cc(Cl)cc(Oc2nc(-c3ccccc3)ns2)c1,inactive: 0.97
5,COc1ccc(NC(=O)Nc2ccc3c(c2)C(=O)N([C@@H](C)CO)C[C@H](C)[C@@H](CN(C)S(=O)(=O)c2ccc(F)cc2)OCCCC[C@@H](C)O3)cc1,inactive: 1
6,C[C@@H]1CN([C@@H](C)CO)C(=O)c2cc(NS(=O)(=O)c3ccc(Cl)cc3)ccc2O[C@@H](C)CCCCO[C@@H]1CN(C)C(=O)Nc1ccccc1,inactive: 1.03
7,O=C1CN(C(=O)c2ccccc2)C(=S)N1,inactive: 1.02
8,C=CCC[C@@H](Cc1ccc(F)cc1)C(=O)OC[C@@H](Cc1ccccc1)NC(=O)[C@H](CC=C)CC(=O)N[C@@H](CO)Cc1ccccc1,inactive: 1.03
9,O=C(NCC[C@@H]1CC[C@H](NS(=O)(=O)c2cccc(F)c2)[C@@H](CO)O1)C1CC1,inactive: 0.987
10,Cc1ccc(S(=O)(=O)Nc2ccc3c(c2)C(=O)N([C@@H](C)CO)C[C@H](C)[C@@H](CN(C)Cc2ccccc2)OCCCC[C@@H](C)O3)cc1,inactive: 0.983
11,N[C@@H](CSCc1ccccc1Cl)C(=O)O,inactive: 0.968
12,O=C(O)CCN1CCCCCC1=O,inactive: 1.01
13,Cc1ccc(S(=O)(=O)N(C)C[C@@H]2OCCCC[C@@H](C)Oc3ccc(NS(=O)(=O)c4ccc(Cl)cc4)cc3C(=O)N([C@H](C)CO)C[C@H]2C)cc1,inactive: 1.01
14,COc1ccc(S(=O)(=O)Nc2ccc3c(c2)CC(=O)N([C@@H](C)CO)C[C@@H](C)[C@H](CN(C)S(=O)(=O)c2ccc(F)cc2)O3)cc1,inactive: 0.997
15,Cc1cc2c(o1)CC(C)(C)CC2=O,inactive: 0.973
16,C[C@@H]1CN([C@H](C)CO)C(=O)c2cc(NC(=O)Cn3cnnn3)ccc2O[C@H]1CN(C)Cc1ccc2c(c1)OCO2,inactive: 0.968
17,O=C(O)CN1CCCCCC1=O,inactive: 0.981
18,O=c1c(O)c(-c2ccccc2)oc2cc(O)ccc12,inactive: 1.08
19,C[C@H]1CN([C@@H](C)CO)S(=O)(=O)c2ccc(Br)cc2O[C@H]1CN(C)C(=O)NC1CCCCC1,inactive: 0.964
20,COc1ccc(-c2coc3cc(OC)cc(OC)c3c2=O)cc1,inactive: 0.852
21,C[C@H](CO)N1C[C@H](C)[C@H](CN(C)Cc2ccc(C(F)(F)F)cc2)Oc2ccc(NC(=O)Nc3cccc4ccccc34)cc2C1=O,inactive: 1
